Results on five molecules are retold here after publication PMC6703689.

Sequences of proteins named here, by UniProt entry; tags and fusion partners are left off.
UniProt Q7Z434: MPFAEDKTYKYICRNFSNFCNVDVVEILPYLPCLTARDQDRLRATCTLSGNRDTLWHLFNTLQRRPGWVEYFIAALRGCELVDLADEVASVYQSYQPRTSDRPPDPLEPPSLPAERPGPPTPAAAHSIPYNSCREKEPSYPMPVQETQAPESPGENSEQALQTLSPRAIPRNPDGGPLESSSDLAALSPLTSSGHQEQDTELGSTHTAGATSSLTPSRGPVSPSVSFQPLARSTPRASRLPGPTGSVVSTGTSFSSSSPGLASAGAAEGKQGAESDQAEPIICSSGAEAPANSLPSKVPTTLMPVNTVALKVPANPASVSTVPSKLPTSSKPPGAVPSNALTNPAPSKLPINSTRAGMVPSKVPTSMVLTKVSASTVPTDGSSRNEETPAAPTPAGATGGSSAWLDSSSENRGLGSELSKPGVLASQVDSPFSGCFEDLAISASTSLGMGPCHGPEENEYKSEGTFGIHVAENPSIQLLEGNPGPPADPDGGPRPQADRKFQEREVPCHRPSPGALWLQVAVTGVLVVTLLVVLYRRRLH

Results are given in words; binding and its absence hold for the method and conditions named. Binding seen in cells or lysates may run through a third protein. Some entries that bind do so weakly or less than the wild type. For some assays here: Tags and fused reporters may be left off the sequences shown.

The target in assay [1] is T1, retinoic acid-inducible gene-I (RIG-I), transfected (human) (UniProt O95786).
T1 sequence: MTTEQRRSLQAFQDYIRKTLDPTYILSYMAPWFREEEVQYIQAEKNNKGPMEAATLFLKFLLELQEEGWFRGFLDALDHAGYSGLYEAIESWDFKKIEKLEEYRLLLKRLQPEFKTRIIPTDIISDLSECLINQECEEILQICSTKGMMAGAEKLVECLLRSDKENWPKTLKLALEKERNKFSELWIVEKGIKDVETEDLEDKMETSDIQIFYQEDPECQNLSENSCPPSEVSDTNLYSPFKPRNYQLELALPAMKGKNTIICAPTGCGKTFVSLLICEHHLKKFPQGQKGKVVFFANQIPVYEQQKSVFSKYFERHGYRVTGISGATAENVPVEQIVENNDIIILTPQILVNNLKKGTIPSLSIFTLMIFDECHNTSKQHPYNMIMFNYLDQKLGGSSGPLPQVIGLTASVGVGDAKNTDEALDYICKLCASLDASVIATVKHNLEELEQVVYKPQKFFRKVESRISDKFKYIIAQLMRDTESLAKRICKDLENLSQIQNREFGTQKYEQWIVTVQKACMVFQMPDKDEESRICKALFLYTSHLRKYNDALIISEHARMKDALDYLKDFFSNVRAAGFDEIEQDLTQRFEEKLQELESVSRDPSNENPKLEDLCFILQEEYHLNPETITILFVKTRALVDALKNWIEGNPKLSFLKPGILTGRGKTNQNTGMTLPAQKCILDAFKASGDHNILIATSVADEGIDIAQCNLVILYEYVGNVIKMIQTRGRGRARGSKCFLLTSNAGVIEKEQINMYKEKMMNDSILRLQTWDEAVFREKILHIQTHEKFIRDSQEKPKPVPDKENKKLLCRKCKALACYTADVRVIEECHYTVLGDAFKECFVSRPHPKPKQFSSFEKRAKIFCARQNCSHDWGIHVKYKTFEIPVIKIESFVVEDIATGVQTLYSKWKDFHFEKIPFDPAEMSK
The assay can be described thus: co-IP; HEK293 cells transiently transfected with the indicated plasmids; NP-40 lysis buffer (20 mM Tris-HCl pH 7.4, 150 mM NaCl, 1 mM EDTA, 1% NP-40); immunoprecipitation and immunoblotting.

Assay [2] addresses T2, MDA5, transfected (human) (UniProt Q9BYX4).
T2 sequence: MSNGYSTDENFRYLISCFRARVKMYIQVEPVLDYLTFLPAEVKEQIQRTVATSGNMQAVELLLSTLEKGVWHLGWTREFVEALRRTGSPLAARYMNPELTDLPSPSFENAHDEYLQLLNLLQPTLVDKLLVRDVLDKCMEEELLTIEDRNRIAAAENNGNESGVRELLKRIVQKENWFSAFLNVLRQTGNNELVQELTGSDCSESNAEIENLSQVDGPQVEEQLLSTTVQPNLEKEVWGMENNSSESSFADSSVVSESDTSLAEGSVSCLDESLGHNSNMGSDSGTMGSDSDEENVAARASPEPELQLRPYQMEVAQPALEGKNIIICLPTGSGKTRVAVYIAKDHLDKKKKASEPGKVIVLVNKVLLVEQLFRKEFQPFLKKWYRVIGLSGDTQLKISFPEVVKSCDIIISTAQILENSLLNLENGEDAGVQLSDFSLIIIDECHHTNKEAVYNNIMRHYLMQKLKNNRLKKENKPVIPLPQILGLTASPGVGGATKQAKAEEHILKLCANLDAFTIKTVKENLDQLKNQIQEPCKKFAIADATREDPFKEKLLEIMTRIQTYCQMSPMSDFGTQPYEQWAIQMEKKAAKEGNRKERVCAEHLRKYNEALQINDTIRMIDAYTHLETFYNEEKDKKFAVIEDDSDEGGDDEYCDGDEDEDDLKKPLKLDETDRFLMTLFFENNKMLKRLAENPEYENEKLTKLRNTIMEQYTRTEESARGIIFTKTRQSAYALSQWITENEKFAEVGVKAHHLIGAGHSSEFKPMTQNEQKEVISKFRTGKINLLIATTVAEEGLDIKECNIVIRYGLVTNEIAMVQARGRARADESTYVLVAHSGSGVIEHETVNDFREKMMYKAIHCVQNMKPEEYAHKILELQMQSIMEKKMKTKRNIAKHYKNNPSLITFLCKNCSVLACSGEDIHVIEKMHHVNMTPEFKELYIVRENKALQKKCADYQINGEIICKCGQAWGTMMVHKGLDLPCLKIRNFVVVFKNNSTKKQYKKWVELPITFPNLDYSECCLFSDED
Described as above.

Assay [3] deals with T3, endogenous RIG-I (human (endogenous in HEK293)) (UniProt O95786).
T3 sequence: T1 sequence
The assay can be described thus: co-IP; endogenous proteins; HEK293 cells treated with IFN-β (50 ng/ml) for 1 hour, then left un-infected or infected with SeV for the indicated times.

Assay [4] concerns the target T4, endogenous MDA5 (human (endogenous in HEK293)) (UniProt Q9BYX4).
T4 sequence: T2 sequence
The description is as above.

Another assay has as its target T5, TBK1, Q9UHD2.
T5 chain: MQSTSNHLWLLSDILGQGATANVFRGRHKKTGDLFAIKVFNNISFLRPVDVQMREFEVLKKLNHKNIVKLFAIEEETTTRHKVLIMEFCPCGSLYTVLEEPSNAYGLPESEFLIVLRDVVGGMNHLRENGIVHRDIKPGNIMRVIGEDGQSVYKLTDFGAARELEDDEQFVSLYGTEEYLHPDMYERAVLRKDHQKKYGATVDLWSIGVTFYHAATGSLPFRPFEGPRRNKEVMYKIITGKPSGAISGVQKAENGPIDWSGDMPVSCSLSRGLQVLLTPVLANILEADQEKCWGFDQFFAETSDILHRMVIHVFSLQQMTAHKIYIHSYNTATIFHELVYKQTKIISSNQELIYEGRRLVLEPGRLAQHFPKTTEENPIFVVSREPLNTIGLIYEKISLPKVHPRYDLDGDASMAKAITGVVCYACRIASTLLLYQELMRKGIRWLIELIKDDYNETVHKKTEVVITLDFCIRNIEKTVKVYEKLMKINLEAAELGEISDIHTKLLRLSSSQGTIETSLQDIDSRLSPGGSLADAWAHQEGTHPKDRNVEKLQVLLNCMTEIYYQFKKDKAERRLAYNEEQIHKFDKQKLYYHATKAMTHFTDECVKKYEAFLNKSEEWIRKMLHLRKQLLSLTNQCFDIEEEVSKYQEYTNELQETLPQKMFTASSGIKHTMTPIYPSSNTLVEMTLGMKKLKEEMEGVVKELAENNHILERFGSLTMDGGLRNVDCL
The experiment in a line: co-IP; HEK293 cells transiently transfected with the indicated plasmids; NP-40 lysis buffer (20 mM Tris-HCl pH 7.4, 150 mM NaCl, 1 mM EDTA, 1% NP-40); immunoprecipitation and immunoblotting. The note with it: remark: other sources report otherwise.

Another assay deals with VISA (UniProt Q7Z434). The assay is described as above.

B1: hnRNPM (aa204-729) (domain or fragment, UniProt P52272 204-729)
chain: STVFVANLDYKVGWKKLKEVFSMAGVVVRADILEDKDGKSRGIGTVTFEQSIEAVQAISMFNGQLLFDRPMHVKMDERALPKGDFFPPERPQQLPHGLGGIGMGLGPGGQPIDANHLNKGIGMGNIGPAGMGMEGIGFGINKMGGMEGPFGGGMENMGRFGSGMNMGRINEILSNALKRGEIIAKQGGGGGGGSVPGIERMGPGIDRLGGAGMERMGAGLGHGMDRVGSEIERMGLVMDRMGSVERMGSGIERMGPLGLDHMASSIERMGQTMERIGSGVERMGAGMGFGLERMAAPIDRVGQTIERMGSGVERMGPAIERMGLSMERMVPAGMGAGLERMGPVMDRMATGLERMGANNLERMGLERMGANSLERMGLERMGANSLERMGPAMGPALGAGIERMGLAMGGGGGASFDRAIEMERGNFGGSFAGSFGGAGGHAPGVARKACQIFVRNLPFDFTWKMLKDKFNECGHVLYADIKMENGKSKGCGVVKFESPEVAERACRMMNGMKLSGREIDVRIDRN
In the case of B1, the binding entry in assay [1] and in assay [2] was “no binding” throughout.

B2: hnRNPM (aa281-653) (domain or fragment, UniProt P52272 281-653)
chain: RALPKGDFFPPERPQQLPHGLGGIGMGLGPGGQPIDANHLNKGIGMGNIGPAGMGMEGIGFGINKMGGMEGPFGGGMENMGRFGSGMNMGRINEILSNALKRGEIIAKQGGGGGGGSVPGIERMGPGIDRLGGAGMERMGAGLGHGMDRVGSEIERMGLVMDRMGSVERMGSGIERMGPLGLDHMASSIERMGQTMERIGSGVERMGAGMGFGLERMAAPIDRVGQTIERMGSGVERMGPAIERMGLSMERMVPAGMGAGLERMGPVMDRMATGLERMGANNLERMGLERMGANSLERMGLERMGANSLERMGPAMGPALGAGIERMGLAMGGGGGASFDRAIEMERGNFGGSFAGSFGGAGGHAPGVARKAC
As to B2, the binding result in assay [1] and in assay [2] was “no binding” throughout.

B3: endogenous hnRNPM (protein, UniProt P52272 1-730)
chain: MAAGVEAAAEVAATEIKMEEESGAPGVPSGNGAPGPKGEGERPAQNEKRKEKNIKRGGNRFEPYANPTKRYRAFITNIPFDVKWQSLKDLVKEKVGEVTYVELLMDAEGKSRGCAVVEFKMEESMKKAAEVLNKHSLSGRPLKVKEDPDGEHARRAMQKVMATTGGMGMGPGGPGMITIPPSILNNPNIPNEIIHALQAGRLGSTVFVANLDYKVGWKKLKEVFSMAGVVVRADILEDKDGKSRGIGTVTFEQSIEAVQAISMFNGQLLFDRPMHVKMDERALPKGDFFPPERPQQLPHGLGGIGMGLGPGGQPIDANHLNKGIGMGNIGPAGMGMEGIGFGINKMGGMEGPFGGGMENMGRFGSGMNMGRINEILSNALKRGEIIAKQGGGGGGGSVPGIERMGPGIDRLGGAGMERMGAGLGHGMDRVGSEIERMGLVMDRMGSVERMGSGIERMGPLGLDHMASSIERMGQTMERIGSGVERMGAGMGFGLERMAAPIDRVGQTIERMGSGVERMGPAIERMGLSMERMVPAGMGAGLERMGPVMDRMATGLERMGANNLERMGLERMGANSLERMGLERMGANSLERMGPAMGPALGAGIERMGLAMGGGGGASFDRAIEMERGNFGGSFAGSFGGAGGHAPGVARKACQIFVRNLPFDFTWKMLKDKFNECGHVLYADIKMENGKSKGCGVVKFESPEVAERACRMMNGMKLSGREIDVRIDRNA
For B3, the binding result in assay [3] and in assay [4] was “binds” in each case.

B4: heterogeneous nuclear ribonucleoprotein M (hnRNPM), Flag- or HA-tagged, transfected, P52272 1-730 (protein)
chain: B3 chain
As for B4, the binding entry with TBK1, Q9UHD2 is “no binding”.

B5: MDA5, transfected (protein, UniProt Q9BYX4 1-1025)
chain: T2 sequence
In the case of B5, the binding result with VISA was “binds”.
